Experimental data: PubChem BioAssay
The inconclusive results got no clear call from the source; some entries with a clear call stand among them for comparison. Activity calls are given as the source filed them.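 The calls were made as follows: active = thallium entry rate above the same plate's blocked-transporter control wells by more than 3 SD; inconclusive = the two repeat wells disagree; inactive = the rest.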

test: FluoZin2 fluorescence counter-screen of MLSMR hits on KCC2-expressing cells (AID 1714); details: HEK293-KCC2 + bumetanide/ouabain, at 10 µM, hits give high values;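 also: raw slope of fluorescence over initial fluorescence between 10 and 20 s after thallium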
Outline: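 material = KCC2-expressing HEK cells | reagent = thallium stimulus | compound dosing = 10 µM single dose | schedule = cells overnight at 37 °C, FluoZin2-AM dye loading 48 min | technique = kinetic FluoZin2 fluorescence, ex 480/em 540 nm | evaluation = normalized thallium flux slope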

Compound | normalized thallium flux
Cc1c(Cl)c([N+](=O)[O-])nn1CCCC(=O)N1CCN(c2ccccc2)CC1 | inconclusive: 0.00738
O=C1c2ccccc2C(=O)N1Cc1cccnc1 | inactive: 0.00583
CCOc1ccc(NC(=O)CSc2nnc(CCNC(=O)c3ccc(OC)cc3)n2CC)cc1 | inconclusive: 0.00732
Fc1c(F)c(F)c(/C=N/NC(=S)Nc2cccnc2)c(F)c1F | active: 0.0295
Cc1ccccc1Nc1nnc(SCc2cc(=O)n3ccsc3n2)s1 | inactive: 0.00638
CC1Cc2ccccc2N1C(=O)COC(=O)c1cccnc1Cl (stereo not given) | inactive: 0.00609
C=C(C)c1cccc(C(C)(C)NC(=O)N2CCC(C(N)=O)CC2)c1 | inconclusive: 0.00537
O=c1oc2ccccc2c(Nc2ccc(F)cc2)c1[N+](=O)[O-] | inactive: 0.00463
COC(=O)C(NS(C)(=O)=O)(c1c(C)[nH]c2ccccc12)C(F)(F)F (stereo not given) | inconclusive: 0.00507
CC1CC(=O)c2cnc(Nc3cccc(C(F)(F)F)c3)nc2C1 (stereo not given) | inconclusive: 0.00727
Cc1cc(C)c(NC(=O)NC(=O)c2cccc(F)c2)c(C)n1 | inactive: 0.00598
COc1ccccc1-c1nnc2sc(COc3ccccc3)nn12 | inconclusive: 0.00553
COc1ccc(CCNc2oc(COc3ccccc3F)nc2C#N)cc1OC | inconclusive: 0.00392
Cc1ccc(/C=C2\SC(=S)N(c3c(C)n(C)n(-c4ccccc4)c3=O)C2=O)cc1 | inconclusive: 0.00814
COc1cccc(/C=c2\s/c(=C/C(=O)c3ccc(C)cc3)[nH]c2=O)c1OC | inconclusive: 0.00588
